The supplement of paper PMC3334620
Over roughly 33,000 sequences, “E-score (-0.5 to 0.5)” has its median near -0.054; the highest 2% begin near 0.35. The list shows a part of the results.

molecular target: T1, Stb5 (UniProt P38699); assay: PBM E-score (8-mer binding enrichment) (E-score (-0.5 to 0.5)); higher = stronger / more preferred TF binding; most listed sequences are background and not binding sites; conditions: protein concentration: 200 nM; construct: GST-full length
T1 sequence: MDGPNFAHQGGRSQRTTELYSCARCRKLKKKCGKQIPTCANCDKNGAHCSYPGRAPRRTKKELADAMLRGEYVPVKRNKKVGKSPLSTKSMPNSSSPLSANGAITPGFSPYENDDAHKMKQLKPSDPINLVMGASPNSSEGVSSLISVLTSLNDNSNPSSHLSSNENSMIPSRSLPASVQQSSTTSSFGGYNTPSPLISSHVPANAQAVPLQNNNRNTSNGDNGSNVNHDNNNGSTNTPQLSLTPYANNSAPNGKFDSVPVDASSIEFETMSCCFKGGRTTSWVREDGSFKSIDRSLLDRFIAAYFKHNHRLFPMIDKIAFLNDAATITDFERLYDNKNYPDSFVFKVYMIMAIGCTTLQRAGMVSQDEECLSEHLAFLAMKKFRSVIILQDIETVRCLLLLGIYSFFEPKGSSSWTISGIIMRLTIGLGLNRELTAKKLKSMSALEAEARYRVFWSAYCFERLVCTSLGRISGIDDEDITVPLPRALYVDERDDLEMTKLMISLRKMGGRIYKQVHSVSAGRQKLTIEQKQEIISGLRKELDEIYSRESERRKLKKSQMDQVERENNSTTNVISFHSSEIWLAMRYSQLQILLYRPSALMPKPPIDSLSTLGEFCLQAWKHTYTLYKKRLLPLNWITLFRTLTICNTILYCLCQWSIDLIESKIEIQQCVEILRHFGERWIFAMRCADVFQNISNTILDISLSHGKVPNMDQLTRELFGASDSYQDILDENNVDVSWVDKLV
Method in brief: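 E-scores (a modified Wilcoxon-Mann-Whitney statistic) were assigned by the Universal PBM Analysis Suite to every ungapped eight-base word pooled with its reverse complement. The input came from universal all-10-mer Agilent arrays made double-stranded by primer extension and probed with GST-tagged yeast transcription factors at about 100-200 nM. Fluorescent anti-GST detected bound protein, and masliner normalised the scans.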

Sequence	PBM E-score
ACATTGTC	0.0388
AAACCCAC	0.136
CGAGTCCC	0.0941
CACCTCCA	-0.105
CACGTGCG	0.156
TAACAACA	-0.157
ATTAGCCG	0.0947
CTTGTTGC	0.00049
ACCATAGC	-0.253
ACACGTTA	-0.346
AAAAATTC	-0.171
AAAAGCAC	0.0623
CGGTGCAG	0.134
GGACCCCA	-0.188
ACCTCTAC	-0.172
GAGAGGTA	-0.153
CAACTTTC	-0.0192
GTTAACAA	0.121
AACAGTTC	-0.211
CTCTTTGC	-0.146
TATCTGAA	-0.136
CTCGACCC	-0.245
AAGACGGA	0.182
GAAGAGAA	-0.0777
ATAGGAGC	0.0257

Sequence	PBM E-score
AATTTCGA	-0.116
CTAGACAC	0.034
GTAGATTA	0.0831
AAAAACCG	0.24
TGCAGGAA	-0.102
CCTAATTC	0.00584
ATAGGCTA	-0.154
AGTAAACG	-0.0142
AGATGCCT	-0.377
CAAATCAC	-0.0836
CGATGAAA	0.0142
CATATGGG	-0.0625
ACTCGACG	-0.0726
CCTCGGAC	0.205
GCCTCCGC	0.139
GTCGCACA	-0.0231
GCGCCAAA	0.0743
GCCGTCCC	0.112
CCGATTAA	0.282
AATACTTC	-0.0945
CGTAACCC	0.181
CATTGTCC	0.111
ACATCGTC	-0.0619
AACAGGAA	-0.207
CATCTGTC	-0.102

Sequence	PBM E-score
CCCAAATC	-0.189
CCAGTCCA	-0.132
ATCACTCG	-0.151
CCAGGATC	-0.143
GTTTTAGA	-0.0303
CCTAAAGG	-0.00265
AGCTGCAG	-0.139
AGCAGGTC	-0.208
AGACTGCA	-0.243
AAGCACTA	-0.143
TATTGGCA	-0.163
CACTAGGA	-0.0578
GCTCCTTA	-0.0796
AACTACGA	-0.189
TCGCCCCA	-0.317
CCACTACC	0.0208
CCTCCGAC	0.294
GGAGCGCC	0.0979
CCCGAGCC	0.162
CTAACACA	-0.0526
ATGTTAGA	-0.295
CTATTATA	0.0578
ACAACTTA	-0.175
AGACAGGG	-0.161
ATAACAAA	-0.00919

Sequence	PBM E-score
ACCTTGTG	-0.177
GTCCGTTA	0.355
CGAATAGC	0.0153
AAAATACA	-0.0908
GAAGGGCA	-0.242
CAGTCACC	0.0656
AGGATTTC	-0.16
ACGGGTCT	0.205
CCTGTCAG	-0.247
AAGTAGCA	-0.187
ACTGCGCC	-0.108
ATGGAACC	0.0868
AAATTAAG	-0.0785
AGTTATTA	-0.0205
CTATAACC	0.0848
CCATGCGG	0.076
CTTCCTGC	-0.17
CAGTGCTA	-0.111
CCCCCACG	-0.128
GTCATGCA	-0.157
ACATCGGA	0.192
AGCCTGTG	-0.197
GACTTTAA	0.0727
CACTGCCG	0.189
ATCTCTAC	-0.208

Sequence	PBM E-score
AGGCCGAG	0.136
TGGCTGAA	-0.182
ATGTCGGG	0.306
CAGATCGA	-0.181
AACAACTG	-0.206
GATAAGGA	-0.155
GGAAATGA	-0.0336
AACACTAA	-0.111
CGCTAGCA	-0.0347
AATCACGT	-0.0522
GCACGAAC	-0.119
AGAGCACG	-0.0748
GGAATCAC	0.24
CCATCTAA	-0.192
TTCTAAAA	0.132
GTTAAAAC	0.262
GACCTAGA	0.113
CGCGTTAC	0.118
CATAACGG	0.109
CGTCCTAA	-0.169
TACTCTGA	0.00917
ATAATGCC	0.386
CATTTCCC	0.115
GCGTGCAC	-0.138
ATGTTGGA	0.0314

Sequence	PBM E-score
AAAAAACT	0.0529
ATGTCTAC	-0.103
GATACATC	-0.00646
GGTTTTCA	0.171
GCTTTCCA	0.0377
AGGGGAAC	-0.331
ACTTTAGC	-0.062
AAGATGCC	-0.016
CTCCAAAG	-0.0428
AGGTATGG	-0.118
CATAAACC	0.019
CCTACTCG	-0.0928
CCAACCGA	-0.13
AGGCCCCA	-0.255
GATGCAGA	-0.221
CCTGAACG	0.0457
CTAACGAG	-0.138
ACACACAA	-0.217
CCGGTTCG	0.184
CGAGGACC	-0.0299
AGCTGAGG	-0.229
CGAGCGCC	0.168
ACCCCTAA	-0.0841
ACAAACGT	-0.218
ACAAAGGT	-0.139

Sequence	PBM E-score
ACGAGCGT	-0.163
CGTCTGGA	-0.122
AGCCATGC	-0.206
AACTTAGA	-0.0598
AGATGGGG	-0.217
GGATCCTA	-0.0341
CTCGCGGA	0.252
CCATCCAG	-0.234
GACATTGA	-0.0778
AAATAGCA	0.0649
ATTTCCAA	-0.0723
AGCTTTAT	-0.232
CACTAGAC	-0.127
AGCTCACA	-0.322
ATAGTGCA	-0.126
ACTGCTAA	-0.155
ATTCCACA	-0.0806
AAAGTCTA	-0.0313
GAGAACAA	-0.0871
ACTGACGC	-0.137
CACCTTCC	-0.0751
TGCTGCCA	-0.225
CCCATCAA	-0.159
GTATAGGA	-0.248
AAGTTCCC	0.113

Sequence	PBM E-score
GCCCCAGC	-0.0607
AGGACTTG	-0.344
GCGAAGGA	-0.148
TAAGGTCA	-0.211
AATCGGCG	0.28
CCATAAGG	-0.265
ACGTCGCT	-0.111
CACTGCAA	-0.139
GGTTCCAC	-0.012
CGCCCGGA	0.18
CAGTCTAG	-0.165
AGTTTCCG	0.152
ATTGGGCA	-0.182
ACGGCCCA	0.152
ATCGCTGG	-0.131
CTAGGTCA	-0.117
ACGTAGAA	-0.0911
ATCATCTC	-0.2
TGAATCAA	-0.109
AAACACCA	0.0372
GTTCAACA	-0.174
AGGGCCCA	-0.113
ACCCATCA	-0.234
AACTGGCT	-0.213
AGAGCGGG	0.339

Sequence	PBM E-score
CGAAGGCC	0.118
GATAAGGC	0.106
AAAAGGCG	-0.12
CCTAATCC	0.0083
AATAAATC	0.0317
GAGTTGAA	0.0747
CTTCCCGC	0.129
CATACGAA	-0.126
GTCCCCTA	-0.202
AGTGAACT	-0.0869
CCCCTTCC	-0.056
ATTCACAA	-0.0544
ACTAAAGG	-0.167
GAATGGGC	-0.139
CGCACGCG	0.166
CAGAGCAC	0.0306
GATCTGGC	-0.0212
GGGGGCAC	-0.00892
ATCGGTGG	0.276
ATCCGATG	0.14
AAGCAAGG	-0.0494
AACCTCAG	-0.1
TACCAGGA	-0.0161
TAAAGTCA	-0.115
ATGTAGCA	-0.158

Sequence	PBM E-score
TTAGTGAA	-0.0571
ACTATATG	0.0513
CAAGGCCC	0.153
AGAATCGG	0.327
CAAAAGAC	0.116
GATGCCCA	-0.136
GAGGATGC	-0.0838
TATTGCAA	0.165
CGCAAAAG	0.0208
CGTACCTA	-0.106
CGACTCAC	-0.0748
CATATCCC	0.052
GGAAGCAC	0.115
AGGGGAAT	-0.0223
CTAGAGAA	-0.205
CTTAGAGA	-0.194
ATACGTGG	-0.0504
CGTAGAAG	-0.162
GGTTTGAC	0.171
TAAATCCA	-0.261
ACTACGAC	-0.0432
ATATCTGG	-0.00824
CTTCATTC	0.0146
CTCCGCAG	0.276
GCATATAA	0.0536

Sequence	PBM E-score
CTCGCTCA	-0.0928
CACATTGC	-0.113
ATCGGATA	0.19
CTGCCTTA	-0.107
CGTGATCC	-0.11
CTGGCGCC	0.025
CACCCTAC	-0.249
CGGGGAGA	0.297
CCCTAAAG	-0.0233
CTGAGCTC	-0.0512
CACTGATC	-0.102
CGCCCTTA	0.168
CCTGAAAC	0.0229
CGGCATGA	0.367
AGGGTGAA	-0.0403
CATATTCA	-0.0475
CTTTACCC	0.0663
CTGCGTGC	-0.00084
CCCTGCTC	-0.237
GGAGACCA	-0.0627
CTCTAGGC	-0.18
CCGGACGG	0.26
GGAAGGGA	-0.006
ACGGCCGC	0.267
AGAAGGGA	-0.109

Sequence	PBM E-score
GGAGGTTA	0.206
AAACAACT	-0.0584
AAAGAGGA	-0.209
GTATATCA	0.0874
GCCGAGCA	-0.021
AAATTAGC	-0.0283
CGGTCAGC	-0.0527
CACCTCCC	-0.0939
TTCTGAAA	-0.123
ATACTGTA	-0.0517
CATTTGCC	-0.00201
ACAACCGG	0.227
GACGTCTA	-0.0803
CGAGTACC	0.106
AGGCGCAC	-0.212
AATGATAC	-0.11
CACTTCAA	-0.0887
ACCATAGG	-0.107
CGAAGTCG	0.0352
AATAAAAA	0.0858
GAGTTAGA	0.167
GATGGTAA	-0.153
AGTTGGCG	-0.00568
GATTATCA	-0.0447
CGACGTCG	0.0543

Sequence	PBM E-score
GACAGAGA	-0.106
CTAATTAC	-0.0792
AGCAATAT	-0.121
AGAGTCAA	-0.162
GGTAATAA	0.345
ACATGCTA	-0.218
CGAAGCCG	0.0327
AGGTAGCA	-0.179
CATGGGAA	-0.0915
CTTGTGGA	-0.27
ATGTACGG	0.0942
CGCGTTTA	0.173
AAGGAGAC	-0.119
GGCGGACA	0.357
AATTGCCG	0.354
ACTCCCCG	0.211
GCCAGTTA	-0.177
CGACCCTA	-0.00369
CTTAAATA	-0.108
AGTCGTAT	-0.144
GGTGACCA	-0.196
GGCTTGGA	-0.381
CCGATGCG	0.339
CGGTACGA	0.336
ACCCATTA	-0.191

Sequence	PBM E-score
AAGGGGCT	-0.145
CAAGTGTG	-0.224
CCCACGCG	-0.0306
CGAACACG	-0.0434
GTGCTTGA	-0.223
GCGTATCC	-0.0868
CACTTTCC	-0.078
ACCCGAAG	-0.0312
GCGTTAGC	0.125
ACCGTAGT	0.14
TGTGTAAA	-0.112
AAACCCAA	-0.252
ATGAATTC	0.0646
CAATCACA	-0.104
AACAATCA	-0.212
ATCATAGG	0.0131
ACGATAGG	0.00485
AGAGTAAC	-0.165
GACGTTAA	0.0475
